Results on 51 compounds are retold here after publication PMC12040169 (PLOS Biology, 2025).

The list shows a part of the results.

For the test, the system named is T1, C. trachomatis L2/434/Bu expressing GFP (CTL2-GFP).
T1 construct: L2/434/Bu GFP intracellular growth in HeLa cells
Also noted: species or system HeLa; C. trachomatis total inclusion area by high-content imaging, normalised to DMSO. To be noted: total inclusion area; 28.5 h, 10 µM; inhibitor. The procedure, abridged:
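Bulk GFP and resorufin signals were read first. Wells were then fixed, stained with Hoechst and imaged to detect GFP inclusions and host nuclei. MICs followed the previously described calculation.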
Turning to `COC(=O)c1cc(C)sc1NC(=S)Nc1ccccc1[N+](=O)[O-]` [CBK267047], the “% of control remaining” value is reported as 131.648.
Take `COc1ccc(CN2CCCC(c3nccnc3-c3cccc(NC(C)=O)c3)C2)cc1` (stereo not drawn) [CBK286135]: the “% of control remaining” value is on record as 101.063.
As for `Cc1ccc(C(=O)C(C)OC(=O)c2cc(-c3ccccc3)nc3ccccc23)cc1` (stereo not drawn) [CBK264067], the “% of control remaining” value came out at 79.596.
For `CCS(=O)(=O)N1CCN(C(=O)c2ccc3nc(C)c(N(CCOC)Cc4ccc(OC)cc4)n3c2)CC1` [CBK146153], the “% of control remaining” value is given as 136.171.
As for `CCSC1CCC(N(C)CC(=O)NCc2ccco2)C1` (stereo not drawn) [CBK304823], the “% of control remaining” value was 73.8491.
For `COc1ccc(C(=O)c2ccc(N3CCN(C4CC(=O)NC4=O)CC3)cc2)cc1F` (stereo not drawn) [CBK268909], the “% of control remaining” value is 105.429.
As to `COc1ccc(Nc2cc(-c3cc(OC)c(OC)c(OC)c3)ncn2)c(OC)c1` [CBK090759], the “% of control remaining” value was found to be 83.9789.
The figure for `CCNC(=O)N1CC2(CCN(CCC(N)=O)CC2)c2ccccc21` [CBK144598T] is 84.2147.
On to `O=S(=O)(c1ccccc1)c1cncc(N2CCNCC2)n1` [CBK051078C], for which the “% of control remaining” value is 76.1369.
Take `COc1ccc(-c2cc(C(=O)NCC3CCNCC3)cnc2-c2ccc(Cl)cc2)cn1` [CBK036700]: the “% of control remaining” value came out at 108.459.
Regarding `CCOc1ccsc1C(=O)Nc1c(OC)cc(F)cc1OC1CCNCC1` [CBK050292T], the “% of control remaining” value amounted to 103.824.
On to `COC(=O)[C@@H]1CN(C(=O)Nc2ccccc2)CCN1S(C)(=O)=O` [CBK289611], for which the “% of control remaining” value was 100.972.
With `CN1CCN(S(=O)(=O)c2ccc(F)cc2)CC1` [CBK050491], the “% of control remaining” value was 94.7417.
Next, `CC1=NN(c2ccccc2)C(=O)C1C(=O)c1ccc(Br)cc1` (stereo not drawn) [CBK067771]: 100.682; `CCc1c(C(=O)NCCn2ccnc2C)[nH]c2ccc(F)cc12` [CBK283314]: 77.3671; `CCCc1nn(CC(=O)NC2CCC2)c(=O)c2cc3ccsc3n12` [CBK284194]: 62.5747.
As for `Cc1ccc(CS(=O)(=O)N(C)C2CCN(C)C(C)C2)c(F)c1` (stereo not drawn) [CBK305484], the “% of control remaining” value stood at 105.6.
With `CCCc1c(O)nc(SCC(=O)NCc2ccco2)[nH]c1=O` [CBK073278], the “% of control remaining” value came to 88.2407.
Consider `COc1cc(-c2cncc(NC(C)CCCC(C)(C)O)n2)cc(OC)c1OC` (stereo not drawn) [CBK065481], for which the “% of control remaining” value is reported as 124.24.
Regarding `Cc1nnc(Sc2nc3ccccc3nc2N2CCCC2)s1` [CBK093751], the “% of control remaining” value was determined as 86.9713.
Next, `COC(=O)CN1C(=O)S/C(=C/c2ccc(OCc3cccc(C(=O)O)c3)c(Cl)c2)C1=O` [CBK265262]: 109.834; `NCCCc1c(-c2ccc(Cl)cc2Cl)[nH][nH]c1=O` [CBK288367]: 89.3121; `Cc1cc(C)nc(N2CCC(C(=O)NCc3ccc(Cl)cc3)CC2)n1` [CBK136319]: 78.9114.
As for `COc1ccccc1C(=O)N1CCN(c2nc3c(s2)c(C)nn3C)CC1` [CBK306836], the “% of control remaining” value turned out to be 92.6063.
As for `Cc1c(C(=O)N2CCC(n3cncn3)CC2)sc2cccc(F)c12` [CBK305520], the “% of control remaining” value was determined as 62.455.
The figure for `COc1ccc2oc(-c3ccccc3)c(C(=O)Nc3nccs3)c2c1` [CBK287767] is 90.2155; for `CCOC(=O)c1cccc(-c2ccc(OC)c(OC)c2)n1` [CBK149247] it is 93.5867.
Take `CCc1ccccc1Nc1nnc(SC(C)C(=O)N2CCCC2)s1` (stereo not drawn) [CBK295197]: the “% of control remaining” value is 100.949.
Take `COc1ccc(/C=C(\C)C(=O)Nc2c(OC)cc(F)cc2OC2CCNCC2)cc1OC` [CBK050353T]: the “% of control remaining” value is listed as 78.3971.
For the compound `O=C(CN1CCN(S(=O)(=O)c2ccc(F)cc2)CC1)Nc1cccc(C(F)(F)F)c1` [CBK071925], the “% of control remaining” value amounted to 77.5703.
On to `COc1ccc(C(CNC(=O)Cn2c(-c3cccc(C)c3)n[nH]c2=S)N2CCOCC2)cc1OC` (stereo not drawn) [CBK297900], for which the “% of control remaining” value is on record as 108.418.
Regarding `CC(=O)NCCCSCc1cn2cccc(C)c2n1` [CBK304809], the “% of control remaining” value was 53.6135.
On to `COc1cc(CNC(=O)c2cccnc2Sc2ccc(Cl)cc2)ccn1` [CBK297755], for which the “% of control remaining” value is given as 80.3105.
In the case of `CCCCOc1nccnc1-c1cnc(OC)nc1OC` [CBK106756], the “% of control remaining” value worked out at 103.447.
As to `CCNc1nccnc1-c1ccccc1Cl` [CBK037313], the “% of control remaining” value came to 76.7354.
As for `COc1ccccc1-c1cc(Nc2ccc(N3CCOCC3)cc2)ncn1` [CBK090933], the “% of control remaining” value is 95.7887.
Next, `CC(Cn1cncn1)C(=O)NC(C)C1CC2CCC1C2` (stereo not drawn) [CBK282089]: 90.7582.
Turning to `Cc1cc(=O)n(CC(=O)Nc2ccc3c(c2)OCO3)cn1` [CBK287835], the “% of control remaining” value is given as 92.4701.
For the compound `COc1cc(NC(=O)C(C)Oc2cccc(Cl)c2)c(C(=O)O)cc1OC` (stereo not drawn) [CBK268470], the “% of control remaining” value is 100.02.
For the compound `CC1=C(C)CC(C(=O)Nc2ccc(C(=O)NCc3cccnc3)cc2)C(C(=O)O)C1` (stereo not drawn) [CBK286567], the “% of control remaining” value is on record as 75.1672.
`NC(=O)C1CCN(C(=S)NC2CC3C=CC2C3)CC1` (stereo not drawn) [CBK085970]: the “% of control remaining” value was found to be 62.04.
Consider `CCOC(=O)c1cnc(SCc2nc(N)nc(Nc3ccc(C)cc3)n2)nc1N` [CBK266292], for which the “% of control remaining” value is on record as 76.0691.
The figure for `COc1ccc(Oc2cc3n(c(=O)n2)CCc2cc(OC)c(OC)cc2-3)cc1` [CBK291177] is 100.221.
In the case of `CC1(C)CC(=O)C2=C(C1)CC1(C)CC(C)(C)CC2(Nc2ccccn2)C1` (stereo not drawn) [CBK022425], the “% of control remaining” value is given as 97.6668.
For the compound `C[C@H](NC(=O)OC(C)(C)C)C(=O)NC[C@H]1CC[C@H](C(=O)O)CC1` [CBK286741], the “% of control remaining” value is listed as 55.0853.
`C=CCNC(=O)N1CC[C@H]2CC(=O)N(Cc3cccnc3)CC[C@H]2C1` [CBK288791]: the “% of control remaining” value came out at 91.5214.
As for `CCP(CC)c1ccc(C(=O)O)cc1` [CBK019342B], the “% of control remaining” value is 67.0963.
Take `Cc1ccc(Nc2cc(-c3cccc4cccnc34)ncn2)cc1NS(C)(=O)=O` [CBK091152]: the “% of control remaining” value is on record as 110.638.
As for `Cc1nnc(C(C)Sc2nnc(-c3ccc(F)cc3)n2CC2CCCO2)o1` (stereo not drawn) [CBK298298], the “% of control remaining” value was determined as 119.107.
Next, `CN1CCOc2ccccc2C(=O)NC/C=C/CC2(CCCNC2)C1=O` (stereo not drawn) [CBK292027]: 92.9201.
Turning to `COc1cc(F)cc(OC2CCNCC2)c1NC(=O)Cc1cn(C)c2ccccc12` [CBK050245T], the “% of control remaining” value is on record as 95.1037.
